# Publication PMC4336329 (PLoS ONE, 2015)
# Screen size: about 310,000 compounds; about 2,200 (0.71%) showed an effect of 50% or more. The effect is printed as a negative number. This is one part of the list.
# Target: human ether-à-go-go-related gene (hERG) potassium channel (human, UniProt Q12809)
# Experiment: primary screen, population patch clamp on CHO cells stably expressing hERG
# Chain of human ether-à-go-go-related gene (hERG) potassium channel (Q12809 whole entry, looked up): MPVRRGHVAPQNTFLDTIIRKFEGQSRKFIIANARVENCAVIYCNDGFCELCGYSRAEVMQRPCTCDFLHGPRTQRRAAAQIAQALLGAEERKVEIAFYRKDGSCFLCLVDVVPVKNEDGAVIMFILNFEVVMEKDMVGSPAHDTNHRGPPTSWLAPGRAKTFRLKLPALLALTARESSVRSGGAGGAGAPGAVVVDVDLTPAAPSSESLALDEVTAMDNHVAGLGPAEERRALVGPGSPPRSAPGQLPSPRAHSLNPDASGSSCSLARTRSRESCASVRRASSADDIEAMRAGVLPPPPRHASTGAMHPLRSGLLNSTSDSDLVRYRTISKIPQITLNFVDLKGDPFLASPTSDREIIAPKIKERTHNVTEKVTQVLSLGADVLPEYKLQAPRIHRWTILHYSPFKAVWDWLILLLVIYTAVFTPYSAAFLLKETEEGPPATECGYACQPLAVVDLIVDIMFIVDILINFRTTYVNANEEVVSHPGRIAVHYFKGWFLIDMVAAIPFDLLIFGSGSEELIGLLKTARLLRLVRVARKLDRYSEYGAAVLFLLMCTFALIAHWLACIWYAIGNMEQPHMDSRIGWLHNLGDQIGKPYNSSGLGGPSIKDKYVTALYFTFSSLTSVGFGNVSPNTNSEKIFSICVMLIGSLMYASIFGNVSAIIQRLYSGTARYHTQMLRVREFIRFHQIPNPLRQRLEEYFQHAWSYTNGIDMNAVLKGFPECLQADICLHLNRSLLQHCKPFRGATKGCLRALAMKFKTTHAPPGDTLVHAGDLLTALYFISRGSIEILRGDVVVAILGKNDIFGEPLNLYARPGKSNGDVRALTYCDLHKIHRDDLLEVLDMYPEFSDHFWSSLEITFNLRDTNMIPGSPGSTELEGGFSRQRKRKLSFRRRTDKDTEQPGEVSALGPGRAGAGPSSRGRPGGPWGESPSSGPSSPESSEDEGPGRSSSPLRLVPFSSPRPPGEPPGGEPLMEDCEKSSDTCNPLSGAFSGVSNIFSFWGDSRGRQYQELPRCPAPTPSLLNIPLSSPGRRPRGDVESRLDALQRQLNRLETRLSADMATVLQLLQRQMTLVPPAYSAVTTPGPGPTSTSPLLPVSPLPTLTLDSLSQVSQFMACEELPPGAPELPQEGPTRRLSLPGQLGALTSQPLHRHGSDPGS
row,SMILES,"hERG current change (%, negative = inhibition) at 1uM"
1,CCCCN(C(=O)C1=COCCO1)c1c(N)n(CCC)c(=O)[nH]c1=O,9.14%
2,COc1cccc(NC(=O)c2ccc3c(c2)CCN3S(C)(=O)=O)c1,14.2%
3,O=C(Nc1ccnn1C1CCN(C/C=C/c2ccccc2)CC1)c1ccccc1Cl,-92.1%
4,COc1nc(C)nc(C)c1Oc1ccc(Cl)cc1Cl,12.8%
5,CC(=O)Nc1cccc(C(=O)/C=C/c2ccc(F)cc2)c1,3.76%
6,O=C(O)CCCN1C(=O)C2C3CC(C2C1=O)C1C(c2ccccc2)c2sc(=O)[nH]c2SC31 (stereo not drawn),4.78%
7,CCOc1ccc(C(=O)/C=C/c2ccc(SC)cc2)cc1,-3.35%
8,CCCS(=O)(=O)c1c(S(=O)(=O)CCC)c2c(N)cccn2c1C(=O)c1ccc(F)cc1,9.49%
9,COc1ccc(C)cc1S(=O)(=O)NCC(c1ccc2c(c1)OCO2)N1CCOCC1 (stereo not drawn),5.86%
10,O=C(/C=C/c1ccc2c(c1)OCO2)Nc1nc2ccccc2s1,-0.327%
11,COC(=O)CSc1nnc(CNC(=O)c2cccc(C)c2)n1-c1ccccc1OC,13.2%
12,Cc1ccn2c(=O)nc(SCC(=O)N3CCCC3)nc2c1,-1.63%
13,CCC(C)(C)C1CCc2c(sc(N)c2C(N)=O)C1 (stereo not drawn),-12.1%
14,Cc1ccc(C)c(NC(=O)c2ccc3ccccc3n2)c1,-8.85%
15,CC(C)Sc1nc2c(c(=O)n1C)SC(C)C2 (stereo not drawn),8.29%
16,CSc1nc(N)nc(SCC(=O)Nc2cccc(F)c2)c1C#N,11.5%
17,COCCN(C(=O)COC(=O)CCOc1ccccc1C)c1c(N)n(Cc2ccccc2)c(=O)[nH]c1=O,6.67%
18,CC(O)c1n(C)c(Cl)c[n+]1C.[I-] (stereo not drawn),0.0498%
19,O=C(CN1C(=O)NC(c2ccccc2)(c2ccccc2)C1=O)NC1CCS(=O)(=O)C1 (stereo not drawn),11.2%
20,CNC(=S)NNC(=O)c1cccs1,11.4%
21,CCC1(c2ccc(F)cc2)NC(=O)N(CC(=O)Nc2cccc(S(=O)(=O)N3CCCCC3)c2)C1=O (stereo not drawn),7.29%
22,Oc1c(I)cc(Cl)c2cccnc12,15.6%
23,COc1cc(-c2cc(C(=O)Nc3nc4ccccc4s3)c3ccccc3n2)cc(OC)c1OC,17.7%

row,SMILES,"hERG current change (%, negative = inhibition) at 1uM"
1,CCOc1ccc(NC(c2ccccc2)P(=O)(OC)OC)cc1 (stereo not drawn),7.41%
2,Cc1c(/C=N\NC(=O)c2c[nH]c3ccccc23)cnn1C,10.4%
3,COC(=O)CNC(=O)C(NC(=O)c1ccc(Cl)cc1)C(C)C (stereo not drawn),17.9%
4,COc1ccccc1OCCNC(=O)c1cc(F)c(F)cc1Cl,3.22%
5,CCCCn1c(NC(=O)c2ccc(Br)o2)c(C(=O)OCC)c2nc3ccccc3nc21,-17.9%
6,CCOC(=O)c1noc(C)c1C(=O)Nc1nccs1,7.45%
7,Cc1cc(=O)[nH]c(SCC(=O)N2C(C)CCCC2C)n1 (stereo not drawn),9.75%
8,Cc1cccc(C(=O)NNC(=O)c2cccc([N+](=O)[O-])c2)c1,11.6%
9,COc1ccc(-c2n[nH]c(=S)n2-c2ccc3c(c2)OCCO3)cc1OC,-0.833%
10,CC(C)CN(CC(C)C)C(=O)Nc1cccc([N+](=O)[O-])c1,16.3%
11,Cc1nc2oc3ccccc3c(=O)c2cc1C(=O)O,19.4%
12,O=C(O)c1cccc(N2C(=O)Nc3ccccc3N2O)c1,12%
13,CCC1Oc2ccc(Cl)cc2N(CC(=O)O)C1=O (stereo not drawn),-6.9%
14,Cc1cccc(N/C=C/C(=O)c2ccc(Cl)cc2)c1,13.1%
15,Cc1nnc(SCC(=O)Nc2sccc2C#N)n1Cc1ccccc1,1.06%
16,COc1cccc(C(c2c(NC(=O)c3ccccc3)sc(C)c2C)N2CCN(C)CC2)c1 (stereo not drawn),13.8%
17,CCC(=O)Nc1ccccc1C(=O)OCC(=O)c1ccc2ccccc2c1,11.4%
18,CN(C)S(=O)(=O)c1cccc(NC(=O)CCCC2CCCCC2)c1,18.1%
19,CS(=O)(=O)N1CCC(C(=O)N2CCN(c3ccccc3)CC2)CC1,13.4%
20,O=C1c2ccccc2C(=O)N1SC1CCCCC1,12%
21,O=C1Cn2c(nc3ccccc32)-c2ccccc2N1,3.55%
22,COc1ccc(-c2cc(C(=O)NC(C)c3ccccn3)c3ccccc3n2)cc1OC (stereo not drawn),5.53%
